Source: PMC4366199, “Arfaptin-1 Negatively Regulates Arl1-Mediated Retrograde Transport” (PLoS ONE, 2015)
Where a chain is given by its changes, count along the chain named. Numbers in names are those of the source. No constants are given. Whether binding was seen depends on the method and setting. For part of these data: Binding seen in cells or lysates may run through a third protein. Some entries that bind do so weakly or less than the wild type. Where a sequence is shown, tags or fusion partners need not be part of it.

Protein sequences, listed by entry. Tags and fused reporters are not part of them.
UniProt Q13439: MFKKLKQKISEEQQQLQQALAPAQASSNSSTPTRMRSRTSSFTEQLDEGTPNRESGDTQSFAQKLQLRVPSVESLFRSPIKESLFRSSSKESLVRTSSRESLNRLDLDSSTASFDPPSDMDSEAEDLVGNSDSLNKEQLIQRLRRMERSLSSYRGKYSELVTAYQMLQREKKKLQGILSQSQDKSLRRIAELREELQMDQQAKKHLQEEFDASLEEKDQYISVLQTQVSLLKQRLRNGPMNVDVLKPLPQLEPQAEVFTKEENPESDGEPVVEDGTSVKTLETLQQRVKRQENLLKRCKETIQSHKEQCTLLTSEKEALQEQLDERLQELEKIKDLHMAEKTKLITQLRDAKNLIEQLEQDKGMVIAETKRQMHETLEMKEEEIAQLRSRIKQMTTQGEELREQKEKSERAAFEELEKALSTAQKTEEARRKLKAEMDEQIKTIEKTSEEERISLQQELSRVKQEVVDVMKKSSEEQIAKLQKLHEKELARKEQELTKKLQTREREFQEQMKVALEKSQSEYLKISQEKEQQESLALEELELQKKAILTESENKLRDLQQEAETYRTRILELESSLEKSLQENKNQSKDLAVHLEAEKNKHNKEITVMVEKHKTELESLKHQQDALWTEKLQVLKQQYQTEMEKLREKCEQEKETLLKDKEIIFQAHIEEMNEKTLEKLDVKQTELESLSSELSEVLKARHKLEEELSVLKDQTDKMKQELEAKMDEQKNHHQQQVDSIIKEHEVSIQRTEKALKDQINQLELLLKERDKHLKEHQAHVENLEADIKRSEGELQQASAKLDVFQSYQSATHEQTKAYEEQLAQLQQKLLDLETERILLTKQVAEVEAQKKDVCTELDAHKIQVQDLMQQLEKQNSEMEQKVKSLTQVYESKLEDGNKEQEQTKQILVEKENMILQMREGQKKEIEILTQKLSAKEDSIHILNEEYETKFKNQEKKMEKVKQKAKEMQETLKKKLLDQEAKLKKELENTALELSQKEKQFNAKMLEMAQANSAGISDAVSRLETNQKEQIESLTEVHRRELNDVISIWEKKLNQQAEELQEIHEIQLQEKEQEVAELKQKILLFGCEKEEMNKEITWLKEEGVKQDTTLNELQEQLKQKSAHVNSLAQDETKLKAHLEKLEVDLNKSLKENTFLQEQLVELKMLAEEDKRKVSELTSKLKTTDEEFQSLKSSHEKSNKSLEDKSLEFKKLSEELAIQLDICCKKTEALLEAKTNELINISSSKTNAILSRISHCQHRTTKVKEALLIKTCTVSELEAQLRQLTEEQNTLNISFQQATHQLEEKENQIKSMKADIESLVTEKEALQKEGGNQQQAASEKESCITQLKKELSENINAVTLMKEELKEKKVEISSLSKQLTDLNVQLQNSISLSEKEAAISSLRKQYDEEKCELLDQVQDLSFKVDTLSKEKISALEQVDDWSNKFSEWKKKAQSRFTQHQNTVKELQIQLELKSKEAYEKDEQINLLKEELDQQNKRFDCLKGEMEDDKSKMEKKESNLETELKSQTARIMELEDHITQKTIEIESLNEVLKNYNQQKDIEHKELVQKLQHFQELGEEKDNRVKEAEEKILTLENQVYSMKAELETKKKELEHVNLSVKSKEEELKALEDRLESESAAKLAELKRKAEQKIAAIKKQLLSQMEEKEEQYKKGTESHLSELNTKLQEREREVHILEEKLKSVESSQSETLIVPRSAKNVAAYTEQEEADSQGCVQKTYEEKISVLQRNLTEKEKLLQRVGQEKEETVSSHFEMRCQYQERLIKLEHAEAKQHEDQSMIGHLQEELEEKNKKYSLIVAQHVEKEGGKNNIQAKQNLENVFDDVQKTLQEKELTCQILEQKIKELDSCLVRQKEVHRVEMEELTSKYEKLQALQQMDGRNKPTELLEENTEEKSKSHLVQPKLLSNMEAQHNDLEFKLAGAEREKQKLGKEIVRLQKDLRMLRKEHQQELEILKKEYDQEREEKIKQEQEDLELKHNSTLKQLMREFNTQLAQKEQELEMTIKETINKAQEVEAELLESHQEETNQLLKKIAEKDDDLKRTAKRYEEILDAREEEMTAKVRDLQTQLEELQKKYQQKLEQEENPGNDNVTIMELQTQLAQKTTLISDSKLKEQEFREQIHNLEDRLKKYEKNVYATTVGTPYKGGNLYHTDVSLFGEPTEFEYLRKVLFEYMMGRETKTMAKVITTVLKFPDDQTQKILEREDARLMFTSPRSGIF

T1: LexA DNA-binding domain fusion of Arl1QL (human) (UniProt P40616)
T1 sequence: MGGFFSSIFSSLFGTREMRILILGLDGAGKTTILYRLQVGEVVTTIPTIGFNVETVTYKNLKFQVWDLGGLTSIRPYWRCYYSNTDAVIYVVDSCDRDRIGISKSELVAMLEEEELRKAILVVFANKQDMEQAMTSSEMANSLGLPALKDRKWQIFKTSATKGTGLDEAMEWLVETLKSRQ

T2: GST-Arl1QL (Arf-like protein 1, Gln71 to Leu, putative active GTP-bound form) (human) (UniProt P40616)
T2 sequence: T1 sequence

B1: GAL4-activation domain fusion of arfaptin-1a (protein, UniProt P53367-2 1-341)
chain: MAQESPKNSAAEIPVTSNGEVDDSREHSFNRDLKHSLPSGLGLSETQITSHGFDNTKEGVIEAGAFQGGQRTQTKSGPVILADEIKNPAMEKLELVRKWSLNTYKCTRQIISEKLGRGSRTVDLELEAQIDILRDNKKKYENILKLAQTLSTQLFQMVHTQRQLGDAFADLSLKSLELHEEFGYNADTQKLLAKNGETLLGAINFFIASVNTLVNKTIEDTLMTVKQYESARIEYDAYRTDLEELNLGPRDANTLPKIEQSQHLFQAHKEKYDKMRNDVSVKLKFLEENKVKVLHNQLVLFHNAIAAYFAGNQKQLEQTLKQFHIKLKTPGVDAPSWLEEQ
B2: GAL4-activation domain fusion of arfaptin-1b (protein, UniProt P53367 1-373)
chain: MAQESPKNSAAEIPVTSNGEVDDSREHSFNRDLKHSLPSGLGLSETQITSHGFDNTKEGVIEAGAFQGSPAPPLPSVMSPSRVAASRLAQQGSDLIVPAGGQRTQTKSGPVILADEIKNPAMEKLELVRKWSLNTYKCTRQIISEKLGRGSRTVDLELEAQIDILRDNKKKYENILKLAQTLSTQLFQMVHTQRQLGDAFADLSLKSLELHEEFGYNADTQKLLAKNGETLLGAINFFIASVNTLVNKTIEDTLMTVKQYESARIEYDAYRTDLEELNLGPRDANTLPKIEQSQHLFQAHKEKYDKMRNDVSVKLKFLEENKVKVLHNQLVLFHNAIAAYFAGNQKQLEQTLKQFHIKLKTPGVDAPSWLEEQ
B3: arfaptin-1b-L23 (residues 143-373), GAL4-activation domain fusion (domain or fragment, UniProt P53367 143-373)
chain: ISEKLGRGSRTVDLELEAQIDILRDNKKKYENILKLAQTLSTQLFQMVHTQRQLGDAFADLSLKSLELHEEFGYNADTQKLLAKNGETLLGAINFFIASVNTLVNKTIEDTLMTVKQYESARIEYDAYRTDLEELNLGPRDANTLPKIEQSQHLFQAHKEKYDKMRNDVSVKLKFLEENKVKVLHNQLVLFHNAIAAYFAGNQKQLEQTLKQFHIKLKTPGVDAPSWLEEQ
B4: arfaptin-1a-S1 (residues 1-116), GAL4-activation domain fusion (domain or fragment, UniProt P53367-2 1-116)
chain: MAQESPKNSAAEIPVTSNGEVDDSREHSFNRDLKHSLPSGLGLSETQITSHGFDNTKEGVIEAGAFQGGQRTQTKSGPVILADEIKNPAMEKLELVRKWSLNTYKCTRQIISEKLG
B5: arfaptin-1b-L1 (residues 1-148), GAL4-activation domain fusion (domain or fragment, UniProt P53367 1-148)
chain: MAQESPKNSAAEIPVTSNGEVDDSREHSFNRDLKHSLPSGLGLSETQITSHGFDNTKEGVIEAGAFQGSPAPPLPSVMSPSRVAASRLAQQGSDLIVPAGGQRTQTKSGPVILADEIKNPAMEKLELVRKWSLNTYKCTRQIISEKLG
B6: arfaptin-1a (Arf-interacting protein 1, short isoform), endogenous (natural protein, human (endogenous in HeLa), UniProt P53367-2 1-341, looked up)
chain: B1 chain
notes: arfaptin-1a, short isoform of arfaptin-1; lacks the insertion (residues 69-100) of arfaptin-1b; also called arfaptin-1a (short form); source: endogenous, HeLa lysate
B7: arfaptin-1b (Arf-interacting protein 1b, long isoform), endogenous (natural protein, human (endogenous in HeLa), UniProt P53367 1-373, looked up)
chain: B2 chain
notes: arfaptin-1b, long isoform of arfaptin-1 with an insertion (residues 69-100) absent from arfaptin-1a; source: endogenous, HeLa lysate
B8: arfaptin-2, endogenous (protein, UniProt P53365 1-341)
chain: MTDGILGKAATMEIPIHGNGEARQLPEDDGLEQDLQQVMVSGPNLNETSIVSGGYGGSGDGLIPTGSGRHPSHSTTPSGPGDEVARGIAGEKFDIVKKWGINTYKCTKQLLSERFGRGSRTVDLELELQIELLRETKRKYESVLQLGRALTAHLYSLLQTQHALGDAFADLSQKSPELQEEFGYNAETQKLLCKNGETLLGAVNFFVSSINTLVTKTMEDTLMTVKQYEAARLEYDAYRTDLEELSLGPRDAGTRGRLESAQATFQAHRDKYEKLRGDVAIKLKFLEENKIKVMHKQLLLFHNAVSAYFAGNQKQLEQTLQQFNIKLRPPGAEKPSWLEEQ
B9: golgin-97, endogenous (protein, UniProt Q92805 1-767)
chain: MFAKLKKKIAEETAVAQRPGGATRIPRSVSKESVASMGADSGDDFASDGSSSREDLSSQLLRRNEQIRKLEARLSDYAEQVRNLQKIKEKLEIALEKHQDSSMRKFQEQNETFQANRAKMAEGLALALARKDQEWSEKMDQLEKEKNILTAQLQEMKNQSMNLFQRRDEMDELEGFQQQELSKIKHMLLKKEESLGKMEQELEARTRELSRTQEELMNSNQMSSDLSQKLEELQRHYSTLEEQRDHVIASKTGAESKITALEQKEQELQALIQQLSIDLQKVTAETQEKEDVITHLQEKVASLEKRLEQNLSGEEHLQELLKEKTLAEQNLEDTRQQLLAARSSQAKAINTLETRVRELEQTLQASEEQLQQSKGIVAAQETQIQELAAANQESSHVQQQALALEQQFLERTQALEAQIVALERTRAADQTTAEQGMRQLEQENAALKECRNEYERSLQNHQFELKKLKEEWSQREIVSVAMAQALEEVRKQREEFQQQAANLTAIIDEKEQNLREKTEVLLQKEQEILQLERGHNSALLQIHQLQAELEALRTLKAEEAAVVAEQEDLLRLRGPLQAEALSVNESHVTSRAMQDPVFQLPTAGRTPNGEVGAMDLTQLQKEKQDLEQQLLEKNKTIKQMQQRMLELRKTLQKELKIRPDNELFEVREKPGPEMANMAPSVTNNTDLTDAREINFEYLKHVVLKFMSCRESEAFHLIKAVSVLLNFSQEEENMLKETLEYKMSWFGSKPAPKGSIRPSISNPRIPWS
B10: arfaptin-1b-myc (protein, UniProt P53367 1-373)
chain: B2 chain
B11: arfaptin-1b-F317A-myc (protein, UniProt P53367 1-373)
chain: B2 chain with F317A

biological target: T1, LexA DNA-binding domain fusion of Arl1QL (human); assay: two-hybrid; small GTPase fused to the LexA DNA-binding domain, arfaptin-1 constructs fused to the GAL4-activation domain, co-transformed into yeast strain L40; colonies screened for histidine auxotrophy

How did the binding turn out when B1 was run?
Its binding is “binds”.

With B2 as the molecule, how does the binding read?
The binding was “binds”.

How did the binding turn out when B3 was run?
Its binding is “binds”.

For B4, which binding is on record?
Its binding is “no binding”.

Which binding does the source give for B5 here?
Its binding is “no binding”.

biological target: T2, GST-Arl1QL (Arf-like protein 1, Gln71 to Leu, putative active GTP-bound form) (human); assay: pull-down; GST fusion proteins (5 μg) immobilized on glutathione-sepharose, incubated with GTPγS (QL) or GDP (TN); HeLa lysates (2.5 mg), endogenous proteins; 12.5% SDS-PAGE and western blotting; only the target purified

“golgin-245, endogenous (from UniProt Q13439 1-2230)” was tested. Which binding did it give?
The binding was “binds”.

B6 was tested. Which binding did it give?
Its binding is “binds”.

With B7 as the molecule, how does the binding read?
Its binding is “binds”.

Which binding does the source give for B8 here?
Its binding is “binds”.

Which binding does the source give for B9 here?
The binding was “binds”.

biological target: T2, GST-Arl1QL (Arf-like protein 1, Gln71 to Leu, putative active GTP-bound form) (human); assay: pull-down; GST-Arl1QL immobilized on glutathione-sepharose, exchanged for GTPγS; precleared lysates of transfected HeLa cells (2.5 mg per 5 μg GST fusion) in NS buffer (20 mM HEPES pH 7.5, 100 mM NaCl, 5 mM MgCl2, 1 mM DTT), 4°C overnight; western blot with anti-myc; only the target purified

For B10, which binding is on record?
Its binding is “binds”.

For B11, which binding is on record?
The binding was “no binding”.
